Data on 20 molecules can be found in publication PMC9911399, “Two distinct binding modes provide the RNA-binding protein RbFox with extraordinary sequence specificity”.

Residue numbers refer to the chain shown, from its start. Some of the results follow.

First the molecules themselves.
B1: CUGGACU (DNA:RNA)
RNA: GGGAGACCGGAAUUCAGAUUGUCCCUGGACUUUAAAUCCCGUCGUAGCCACCA
DNA 1: CAATCTGAATTCCGGTCTCCC
DNA 2: TGGTGGCTACGACGGGATT
B2: CCGUGAC (DNA:RNA)
RNA: B1 RNA with U26C, G28U, A29G, C30A, U31C
DNA 1: CAATCTGAATTCCGGTCTCCC
DNA 2: TGGTGGCTACGACGGGATT
B3: UGCCACG (DNA:RNA)
RNA: B1 RNA with C25U, U26G, G27C, G28C, U31G
DNA 1: CAATCTGAATTCCGGTCTCCC
DNA 2: TGGTGGCTACGACGGGATT
B4: GAGCUUC (DNA:RNA)
RNA: B1 RNA with C25G, U26A, G28C, A29U, C30U, U31C
DNA 1: CAATCTGAATTCCGGTCTCCC
DNA 2: TGGTGGCTACGACGGGATT
B5: AUCCUAG (DNA:RNA)
RNA: B1 RNA with C25A, G27C, G28C, A29U, C30A, U31G
DNA 1: CAATCTGAATTCCGGTCTCCC
DNA 2: TGGTGGCTACGACGGGATT
B6: UCGUGCA (DNA:RNA)
RNA: B1 RNA with C25U, U26C, G28U, A29G, U31A
DNA 1: CAATCTGAATTCCGGTCTCCC
DNA 2: TGGTGGCTACGACGGGATT
B7: AUUGCUU (DNA:RNA)
RNA: B1 RNA with C25A, G27U, A29C, C30U
DNA 1: CAATCTGAATTCCGGTCTCCC
DNA 2: TGGTGGCTACGACGGGATT
B8: AGACGGA (DNA:RNA)
RNA: GGGAGACCGGAAUUCAGAUUGUCCAGACGGAUUAAAUCCCGUCGUAGCCACCA
DNA 1: CAATCTGAATTCCGGTCTCCC
DNA 2: TGGTGGCTACGACGGGATT
B9: ACGUGGG (DNA:RNA)
RNA: B8 RNA with G26C, A27G, C28U, A31G
DNA 1: CAATCTGAATTCCGGTCTCCC
DNA 2: TGGTGGCTACGACGGGATT
B10: AUCCUAA (DNA:RNA)
RNA: B8 RNA with G26U, A27C, G29U, G30A
DNA 1: CAATCTGAATTCCGGTCTCCC
DNA 2: TGGTGGCTACGACGGGATT
B11: GCGGCAG (DNA:RNA)
RNA: B1 RNA with C25G, U26C, A29C, C30A, U31G
DNA 1: CAATCTGAATTCCGGTCTCCC
DNA 2: TGGTGGCTACGACGGGATT
B12: GGUAGGC (DNA:RNA)
RNA: B8 RNA with A25G, A27U, C28A, A31C
DNA 1: CAATCTGAATTCCGGTCTCCC
DNA 2: TGGTGGCTACGACGGGATT
B13: CGGGUAA (DNA:RNA)
RNA: B1 RNA with U26G, A29U, C30A, U31A
DNA 1: CAATCTGAATTCCGGTCTCCC
DNA 2: TGGTGGCTACGACGGGATT
B14: CCACUGA (DNA:RNA)
RNA: B8 RNA with A25C, G26C, G29U
DNA 1: CAATCTGAATTCCGGTCTCCC
DNA 2: TGGTGGCTACGACGGGATT
B15: CAGGGGG (DNA:RNA)
RNA: B1 RNA with U26A, A29G, C30G, U31G
DNA 1: CAATCTGAATTCCGGTCTCCC
DNA 2: TGGTGGCTACGACGGGATT
B16: GUAGAAC (DNA:RNA)
RNA: B1 RNA with C25G, G27A, C30A, U31C
DNA 1: CAATCTGAATTCCGGTCTCCC
DNA 2: TGGTGGCTACGACGGGATT
B17: CUGUCAU (DNA:RNA)
RNA: B1 RNA with G28U, A29C, C30A
DNA 1: CAATCTGAATTCCGGTCTCCC
DNA 2: TGGTGGCTACGACGGGATT
B18: AUCCUUG (DNA:RNA)
RNA: B8 RNA with G26U, A27C, G29U, G30U, A31G
DNA 1: CAATCTGAATTCCGGTCTCCC
DNA 2: TGGTGGCTACGACGGGATT
B19: AACAUUG (DNA:RNA)
RNA: B8 RNA with G26A, A27C, C28A, G29U, G30U, A31G
DNA 1: CAATCTGAATTCCGGTCTCCC
DNA 2: TGGTGGCTACGACGGGATT
B20: CAAACUA (DNA:RNA)
RNA: B8 RNA with A25C, G26A, C28A, G29C, G30U
DNA 1: CAATCTGAATTCCGGTCTCCC
DNA 2: TGGTGGCTACGACGGGATT

In this assay the target is T1, RBFOX1 RRM RbFoxmut (Fox-RRM*) (Homo sapiens, UniProt Q9NWB1 109-208, R118D;E147R;N151S;E152T).
T1 sequence: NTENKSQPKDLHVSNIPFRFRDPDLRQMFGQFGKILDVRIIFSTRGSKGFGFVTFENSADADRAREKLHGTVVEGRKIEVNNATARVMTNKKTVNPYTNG
The assay is described as follows: EMSA; HiTS-Eq, 1 nM pool, 10 min; buffer printed only for the single-RNA assays: 10 mM Tris pH 7.5, 150 mM NaCl, 3.4 mM EDTA, 0.001% NP-40, 30 C. The settings on record: tags: His6 N-terminal (pET28a); label: 5' 32P. In short, it runs like this: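 Relative association constants, normalised to the cognate motif, were derived by comparing read counts of each RNA species with those of the control reaction. The RNA sequenced was the free fraction, separated by 8% native PAGE after a 10 min equilibration in 50 µL of 1 nM 5′-radiolabelled RNA (7 randomized nucleotides) with increasing concentrations of purified wild-type or mutant RbFox RRM.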
Regarding B1, the binding signal was 0.0491 KA relative to UGCAUGU.

As for B2, the binding signal was 0.0977 KA relative to UGCAUGU.

For the molecule B3, the binding signal was 0.158 KA relative to UGCAUGU.

With B4, the binding signal was 0.0856 KA relative to UGCAUGU.

In the case of B5, the binding signal is 0.12 KA relative to UGCAUGU.

Turning to B6, the binding signal is 0.181 KA relative to UGCAUGU.

As for B7, the binding signal is 0.137 KA relative to UGCAUGU.

With B8, the binding signal is 0.0873 KA relative to UGCAUGU.

For the molecule B9, the binding signal is 0.0961 KA relative to UGCAUGU.

Consider B10, for which the binding signal was 0.107 KA relative to UGCAUGU.

Regarding B11, the binding signal was 0.104 KA relative to UGCAUGU.

As for B12, the binding signal was 0.0675 KA relative to UGCAUGU.

Turning to B13, the binding signal is 0.0961 KA relative to UGCAUGU.

Turning to B14, the binding signal was 0.123 KA relative to UGCAUGU.

B15: the binding signal was 0.0803 KA relative to UGCAUGU.

Take B16: the binding signal is 0.116 KA relative to UGCAUGU.

Consider B17, for which the binding signal was 0.0805 KA relative to UGCAUGU.

As to B18, the binding signal is 0.109 KA relative to UGCAUGU.

In the case of B19, the binding signal is 0.0767 KA relative to UGCAUGU.

In the case of B20, the binding signal was 0.0907 KA relative to UGCAUGU.
